Laboratory results from the supplement of paper PMC4967469.
IC50 is the fitted dose that halves viability relative to control wells, and lower means more sensitive; a limit (>, <) means that the fit lies beyond the doses tested. AUC sums up the same curve from the lowest dose to the 256-fold higher top dose; the more sensitive the line, the further below 1. For some assays here: A top dose marked as inferred was calculated from the reported fits. For some assays here: Where an entry number is given, a second screen of the drug exists; the two often differ.

Experiments:
Experiment in all cases: Viability of human cancer cell lines after 72 h of drug (GDSC screen)
[1] = compound: CN(C)C/C=C/C(=O)Nc1cc2c(Nc3ccc(F)c(Cl)c3)ncnc2cc1O[C@H]1CCOC1 [Afatinib]
Protocol: (§1)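 Human cancer cell lines in 384-well plates, medium with 10% serum, drug for 72 h over a 256-fold dose range (nine 2-fold or five 4-fold steps up to the top dose). Adherent lines were fixed and stained with the nucleic acid dye Syto60, suspension lines read with resazurin; signal relative to control wells, capped at 0 and 100%. One two-parameter sigmoid per drug and line, fitted in a mixed model over all curves with the slope shared within a line.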

[2] = compound: CN(c1ncccc1CNc1nc(Nc2ccc3c(c2)CC(=O)N3)ncc1C(F)(F)F)S(C)(=O)=O [PF-562271]; settings: top dose 2.56 µM; top dose inferred
Protocol: as §1

[3] = compound: O=C(NC1CC1)c1cccc(-c2ccc3c(NC(=O)C4CC4)n[nH]c3c2)c1 [XMD13-2]; settings: top dose 10.24 µM; top dose inferred
Protocol: as §1

[4] = compound: CC1(C)CC(=O)c2c(C(F)(F)F)nn(-c3ccc(C(N)=O)c(N[C@H]4CC[C@H](O)CC4)c3)c2C1 [SNX-2112]; settings: top dose 2.56 µM
Protocol: as §1

[5] = compound: CC[C@]1(O)C[C@@H]2CN(CCc3c([nH]c4ccccc34)[C@@](C(=O)OC)(c3cc4c(cc3OC)N(C)[C@H]3[C@@](O)(C(=O)OC)[C@H](OC(C)=O)[C@]5(CC)C=CCN6CC[C@]43[C@@H]65)C2)C1 [Vinblastine]; settings: top dose 0.1 µM; top dose inferred
Protocol: as §1

[6] = top dose 0.5 µM, screen: GDSC drug entry 1032
[7] = top dose 10 µM, screen: GDSC drug entry 1377, top dose inferred

Cell Line	AUC [1, 6]	IC50 [1, 6] [nM]	AUC [1, 7]	IC50 [1, 7] [nM]	AUC [2]	IC50 [2] [nM]	AUC [3]	IC50 [3] [nM]	AUC [4]	IC50 [4] [nM]	AUC [5]	IC50 [5] [nM]
BE2-M17 (neuroblastoma, adherent)	0.968	> 500	0.986	> 10000	0.942	> 2560	0.959	> 10200	0.92	> 2560	0.591	11.2
BE-13 (lymphoblastic leukaemia, suspension)	0.966	> 500	0.931	> 10000	0.916	> 2560	0.736	2870	0.359	67	0.299	1.77
BFTC-905 (bladder, adherent)	0.99	> 500	0.938	> 10000	0.912	> 2560	0.887	8670	0.562	230	0.416	3.81
BHT-101 (thyroid, adherent)	0.973	> 500	0.983	> 10000	0.864	2350	0.966	> 10200	0.511	172	0.756	35.1
BICR10 (head and neck, adherent)	0.979	> 500	0.969	> 10000	0.867	> 2560	0.982	> 10200	0.739	869	0.437	4.1
BICR22 (head and neck, adherent)	0.849	466	0.781	4800	0.92	> 2560	0.968	> 10200	0.679	549	0.397	3.11
BICR78 (head and neck, adherent)	0.455	23.1	0.711	2730	0.944	> 2560	0.948	> 10200	0.858	> 2560	0.47	5.12
BL-41 (Burkitt lymphoma, suspension)	0.994	> 500	0.993	> 10000	0.9	1890	0.555	873	0.176	23.9	0.207	1.14
BV-173 (chronic myeloid leukaemia, suspension)	0.973	> 500	0.981	> 10000	0.881	2130	0.596	1130	0.337	59.9	0.131	0.525
BxPC-3 (pancreas, adherent)	0.976	> 500	0.95	> 10000	0.856	2470	0.956	> 10200	0.383	73	0.497	6.12
C2BBe1 (large intestine, adherent)	0.974	> 500	0.854	9670	0.94	> 2560	0.975	> 10200	0.783	1240	0.615	13.6
C3A (liver, adherent)	0.98	> 500	0.987	> 10000	0.922	> 2560	0.988	> 10200	0.538	204	0.933	> 100
C-4-I (cervix, adherent)	0.872	> 500			0.89	> 2560	0.959	> 10200	0.687	562	0.608	12.7
C-33-A (cervix, adherent)	0.81	264	0.591	1110	0.849	1940	0.93	> 10200	0.403	86.4	0.522	7.19
CA46 (Burkitt lymphoma, suspension)	0.985	> 500	0.954	> 10000	0.917	> 2560	0.911	> 10200	0.324	49.7	0.787	46.9
CAKI-1 (kidney, adherent)	0.908	> 500	0.713	3440	0.816	2460	0.943	> 10200	0.827	> 2560	0.693	28.7
CAL-12T (non-small cell lung carcinoma, adherent)	0.91	> 500	0.849	8930	0.928	> 2560	0.972	> 10200	0.568	250	0.769	42.4
CAL-27 (head and neck, adherent)	0.547	42.1	0.254	121	0.938	> 2560	0.81	5530	0.445	113	0.34	2.22
CAL-29 (bladder, adherent)	0.877	> 500	0.82	6320	0.947	> 2560	0.971	> 10200	0.511	172	0.431	3.98
CAL-33 (head and neck, adherent)	0.569	48.3	0.609	1240	0.78	1060	0.819	5830	0.487	148	0.358	2.52
CAL-39 (cervix, adherent)	0.701		0.775	4120	0.86	2290	0.955	> 10200	0.779	1090	0.487	5.75
CAL-51 (breast, adherent)	0.985	> 500	0.957	> 10000	0.852	1580	0.983	> 10200	0.973	> 2560	0.579	9.98

Cell Line	AUC [1, 6]	IC50 [1, 6] [nM]	AUC [1, 7]	IC50 [1, 7] [nM]	AUC [2]	IC50 [2] [nM]	AUC [3]	IC50 [3] [nM]	AUC [4]	IC50 [4] [nM]	AUC [5]	IC50 [5] [nM]
CAL-62 (thyroid, adherent)	0.988	> 500	0.974	> 10000	0.835	1560	0.978	> 10200	0.986	> 2560	0.43	4.07
CAL-72 (osteosarcoma, adherent)	0.943	> 500	0.966	> 10000	0.917	> 2560	0.979	> 10200	0.984	> 2560	0.505	6.46
CAL-78 (chondrosarcoma, adherent)	0.986	> 500	0.946	> 10000	0.891	> 2560	0.98	> 10200	0.58	275	0.637	15.8
CAL-85-1 (breast, adherent)	0.956	> 500	0.756	4330	0.804	1740	0.881	> 10200	0.777	1340	0.681	23.2
CAL-120 (breast, adherent)	0.959	> 500	0.92	> 10000	0.813	1910	0.94	> 10200	0.566	256	0.558	9.42
CAPAN-1 (pancreas, adherent)	0.953	> 500	0.955	> 10000	0.948	> 2560	0.973	> 10200	0.589	289	0.795	
CAS-1 (glioma, adherent)	0.981	> 500	0.974	> 10000	0.912	> 2560	0.958	> 10200	0.899	> 2560	0.763	49.3
CCK-81 (large intestine, adherent)	0.784	199	0.96	> 10000	0.973	> 2560	0.938	> 10200	0.468	131	0.939	> 100
CESS (acute myeloid leukaemia, suspension)	0.989	> 500	0.982	> 10000	0.964	> 2560	0.696	2070	0.161	18.3	0.928	> 100
CGTH-W-1 (thyroid, adherent)	0.984	> 500	0.982	> 10000	0.842	1780	0.944	> 10200	0.828	1570	0.354	2.48
CHL-1 (melanoma, adherent)	0.446	22.5	0.252	128	0.869	2130	0.905	> 10200	0.372	72.4	0.482	5.59
CHP-126 (neuroblastoma, suspension)	0.987	> 500	0.986	> 10000	0.945	> 2560	0.965	> 10200	0.87	2500	0.723	27.3
CHP-212 (neuroblastoma, adherent)	0.971	> 500	0.986	> 10000	0.806	1180	0.988	> 10200	0.983	> 2560	0.419	3.82
CHSA0011 (chondrosarcoma, adherent)	0.98	> 500	0.913	> 10000	0.908	> 2560	0.961	> 10200	0.914	> 2560	0.793	67.8
CHSA8926 (chondrosarcoma, adherent)	0.966	> 500	0.908	> 10000	0.748	1140	0.97	> 10200	0.753	1190	0.596	12.8
CL-11 (large intestine, adherent)	0.982	> 500	0.986	> 10000	0.976	> 2560	0.968	> 10200	0.951	> 2560	0.93	> 100
CMK (acute myeloid leukaemia, suspension)	0.99	> 500	0.947	> 10000	0.906	2550	0.864	6770	0.15	17.1	0.893	87
COLO-205 (large intestine, suspension)	0.986	> 500	0.979	> 10000	0.672	479	0.843	7090	0.361	66.5	0.61	12.5
COLO-320-HSR (large intestine, suspension)	0.988	> 500	0.99	> 10000	0.95	> 2560	0.983	> 10200	0.359	69.3	0.848	60
COLO-668 (small cell lung carcinoma, adherent)	0.989	> 500	0.982	> 10000	0.974	> 2560	0.915	> 10200	0.409	90.3	0.941	> 100
COLO-678 (large intestine, semi-adherent)	0.833	464	0.845	> 10000	0.958	> 2560	0.984	> 10200	0.89	> 2560	0.912	> 100
